To fix the notation:
B1: GPR68, Q15743 (parent)
chain: MGNITADNSSMSCTIDHTIHQTLAPVVYVTVLVVGFPANCLSLYFGYLQIKARNELGVYLCNLTVADLFYICSLPFWLQYVLQHDNWSHGDLSCQVCGILLYENIYISVGFLCCISVDRYLAVAHPFRFHQFRTLKAAVGVSVVIWAKELLTSIYFLMHEEVIEDENQHRVCFEHYPIQAWQRAINYYRFLVGFLFPICLLLASYQGILRAVRRSHGTQKSRKDQIQRLVLSTVVIFLACFLPYHVLLLVRSVWEASCDFAKGVFNAYHFSLLLTSFNCVADPVLYCFVSETTHRDLARLRGACLAFLTCSRTGRAREAYPLGAPEASGKSGAQGEEPELLTKLHPAFQTPNSPGSGGFPTGRLA

Data set [1] covers variants of B1. Description: cAMP reporter score (Enrich2 score, wild type = 0); higher = more signal; HEK293T, FACS bins.
In data set [2] the parent is B1. Nature of the data set: surface expression score (Enrich2 score, wild type = 0); higher = more signal; HEK293T, FACS bins.

Scores whose standard error is large were omitted. Two further conditions of the source, in which the scores hardly spread, are not listed. In variant names, del marks residues removed and ins residues inserted between the two positions. For part of these data: The data file names ogerin without a concentration.

For the variant T152_I154del, the cAMP reporter score in data set [1] (pH 5.5) was -1.31; in data set [1] (pH 6), -0.814; in data set [1] (pH 6.5, modulator: ogerin), -1.52. Also, in data set [2], the surface expression score was -2.96.
With S153_I154insG, the cAMP reporter score was -0.413 in data set [1] (pH 5.5); -0.861 in data set [1] (pH 6); -0.427 in data set [1] (pH 6.5, modulator: ogerin).
Take E161del: the cAMP reporter score in data set [1] (pH 5.5) was 0.279; in data set [1] (pH 6) it was -0.584; in data set [1] (pH 6, modulator: ogerin) it was 1.02; in data set [1] (pH 6.5, modulator: ogerin), -0.108. In data set [2], the surface expression score worked out at 1.02.
Q179_A180insG: the cAMP reporter score in data set [1] (pH 5.5) is -0.327; in data set [1] (pH 6), -0.964; in data set [1] (pH 6, modulator: ogerin), -0.874; in data set [1] (pH 6.5, modulator: ogerin) it was -1.7. Besides, the surface expression score in data set [2] was -0.616.
In the same order, the values of C172_F173insG are -0.805, -0.922, -1.5, -1.48 and -0.574.
The like results for G193_F194insGS were, in that order, -0.663, -1.6, -1.1, -1.87 and -2.72.
For I154_Y155insG, the cAMP reporter score in data set [1] (pH 5.5) is -1.71; in data set [1] (pH 6) it was -1.5; in data set [1] (pH 6, modulator: ogerin) it was -1.89; in data set [1] (pH 6.5, modulator: ogerin) it was -1.12. Besides, the surface expression score in data set [2] was -1.32.
For H175_Y176insG, the cAMP reporter score in data set [1] (pH 5.5) was -0.791; in data set [1] (pH 6), -0.774; in data set [1] (pH 6, modulator: ogerin) it was -1.1; in data set [1] (pH 6.5, modulator: ogerin) it was -1.68. For the same variant, in data set [2], the surface expression score was 0.243.
As for Y188_F190del, the cAMP reporter score in data set [1] (pH 5.5) was -1.58; in data set [1] (pH 6), -1.22; in data set [1] (pH 6.5, modulator: ogerin), -1.17. For the same variant, the surface expression score in data set [2] is -2.51.
As to F173_E174del, the cAMP reporter score in data set [1] (pH 5.5) is -1.8; in data set [1] (pH 6) it was -1.28; in data set [1] (pH 6, modulator: ogerin), -1.43; in data set [1] (pH 6.5, modulator: ogerin) it was -1.31. In data set [2], the surface expression score is -2.03.
V162_I163insG: the cAMP reporter score in data set [1] (pH 5.5) is -0.507; in data set [1] (pH 6.5, modulator: ogerin) it was -2.04. In addition, in data set [2], the surface expression score came to 2.43.
Take F156_L157insG: the cAMP reporter score in data set [1] (pH 5.5) was -0.663; in data set [1] (pH 6, modulator: ogerin) it was -0.948; in data set [1] (pH 6.5, modulator: ogerin), -0.677.
As for L151del, the cAMP reporter score in data set [1] (pH 5.5) is -0.393; in data set [1] (pH 6) it was -1.04; in data set [1] (pH 6, modulator: ogerin), -2.01; in data set [1] (pH 6.5, modulator: ogerin), -0.755. The surface expression score in data set [2] is -0.651.
As for H175R, the cAMP reporter score was -0.205 in data set [1] (pH 5.5); 0.168 in data set [1] (pH 6); -0.345 in data set [1] (pH 6, modulator: ogerin); 0.732 in data set [1] (pH 6.5, modulator: ogerin). Further, in data set [2], the surface expression score is -0.395.
With H175I, the cAMP reporter score in data set [1] (pH 5.5) is -2.17; in data set [1] (pH 6), -0.923; in data set [1] (pH 6, modulator: ogerin) it was -2.12; in data set [1] (pH 6.5, modulator: ogerin) it was -1.96. Moreover, in data set [2], the surface expression score is -0.889.
The like results for H175W were, in that order, -1.62, -2.05, -0.406, -0.613 and 0.498.
In the same order, the values of H175F are -0.042, -0.141, -0.451, -0.605 and 1.08.
In the case of H175G, the cAMP reporter score is -1.23 in data set [1] (pH 5.5); -1.59 in data set [1] (pH 6); -1.25 in data set [1] (pH 6, modulator: ogerin); -1.41 in data set [1] (pH 6.5, modulator: ogerin). In data set [2], the surface expression score came out at 0.149.
Take H175Y: the cAMP reporter score in data set [1] (pH 5.5) was -0.667; in data set [1] (pH 6), -0.272; in data set [1] (pH 6, modulator: ogerin), -0.915; in data set [1] (pH 6.5, modulator: ogerin) it was -0.644. Moreover, the surface expression score in data set [2] was -0.271.
Turning to H175A, the cAMP reporter score is 0.464 in data set [1] (pH 5.5); 0.165 in data set [1] (pH 6); -0.766 in data set [1] (pH 6, modulator: ogerin); -0.151 in data set [1] (pH 6.5, modulator: ogerin). In data set [2], the surface expression score worked out at 0.508.
Consider H175L, for which the cAMP reporter score is -0.576 in data set [1] (pH 5.5); -0.355 in data set [1] (pH 6); -0.857 in data set [1] (pH 6, modulator: ogerin); -0.862 in data set [1] (pH 6.5, modulator: ogerin). Also, in data set [2], the surface expression score worked out at 0.021.
For the variant H175K, the cAMP reporter score was -0.343 in data set [1] (pH 5.5); 0.281 in data set [1] (pH 6, modulator: ogerin); 1.86 in data set [1] (pH 6.5, modulator: ogerin). For the same variant, the surface expression score in data set [2] amounted to 0.529.
As for H175S, the cAMP reporter score in data set [1] (pH 5.5) is 0.274; in data set [1] (pH 6, modulator: ogerin), 0.279; in data set [1] (pH 6.5, modulator: ogerin), -0.412. Besides, the surface expression score in data set [2] turned out to be 0.248.
As for H175M, the cAMP reporter score in data set [1] (pH 5.5) was -1.12; in data set [1] (pH 6), -1.39; in data set [1] (pH 6, modulator: ogerin) it was -1.51; in data set [1] (pH 6.5, modulator: ogerin), -1.94. Further, the surface expression score in data set [2] came out at 1.56.
Turning to H175N, the cAMP reporter score in data set [1] (pH 5.5) was -0.894; in data set [1] (pH 6), -0.466; in data set [1] (pH 6, modulator: ogerin), -1.48; in data set [1] (pH 6.5, modulator: ogerin), -1.1. In addition, the surface expression score in data set [2] was found to be 0.157.
For H175V, the cAMP reporter score was -0.569 in data set [1] (pH 5.5) and -0.795 in data set [1] (pH 6.5, modulator: ogerin). Besides, the surface expression score in data set [2] was 0.527.
Turning to H175Q, the cAMP reporter score in data set [1] (pH 5.5) is -0.745; in data set [1] (pH 6), -0.55; in data set [1] (pH 6, modulator: ogerin) it was -1.34; in data set [1] (pH 6.5, modulator: ogerin) it was -0.267. The surface expression score in data set [2] turned out to be 0.263.
In the same order, the values of H175D are -1.62, -0.497, -1.41, -1.56 and -0.495.
I178_Q179insGS: the cAMP reporter score in data set [1] (pH 5.5) was -0.892; in data set [1] (pH 6) it was -0.675; in data set [1] (pH 6.5, modulator: ogerin), -0.794. The surface expression score in data set [2] was -1.1.
Regarding S153_I154insGSG, the cAMP reporter score in data set [1] (pH 5.5) is -1.41; in data set [1] (pH 6), -1.34; in data set [1] (pH 6, modulator: ogerin), -1.33; in data set [1] (pH 6.5, modulator: ogerin), -1.47. The surface expression score in data set [2] is -2.07.
On to A184del, for which the cAMP reporter score in data set [1] (pH 5.5) was -1.78; in data set [1] (pH 6), -1.14; in data set [1] (pH 6, modulator: ogerin), -1.48; in data set [1] (pH 6.5, modulator: ogerin), -1.2. Also, the surface expression score in data set [2] was -1.37.
As to H169del, the cAMP reporter score is -0.717 in data set [1] (pH 5.5); -0.675 in data set [1] (pH 6); -2.25 in data set [1] (pH 6, modulator: ogerin); -1.51 in data set [1] (pH 6.5, modulator: ogerin). In data set [2], the surface expression score was 0.133.
